The source of these data is paper PMC4336329 (PLoS ONE, 2015).

Out of some 310,000 compounds screened, about 2,200 (0.71%) showed an effect of 50% or more. Effects have a minus sign here. Some of the results follow.

Chain of human ether-à-go-go-related gene (hERG) potassium channel (Q12809 whole entry, looked up): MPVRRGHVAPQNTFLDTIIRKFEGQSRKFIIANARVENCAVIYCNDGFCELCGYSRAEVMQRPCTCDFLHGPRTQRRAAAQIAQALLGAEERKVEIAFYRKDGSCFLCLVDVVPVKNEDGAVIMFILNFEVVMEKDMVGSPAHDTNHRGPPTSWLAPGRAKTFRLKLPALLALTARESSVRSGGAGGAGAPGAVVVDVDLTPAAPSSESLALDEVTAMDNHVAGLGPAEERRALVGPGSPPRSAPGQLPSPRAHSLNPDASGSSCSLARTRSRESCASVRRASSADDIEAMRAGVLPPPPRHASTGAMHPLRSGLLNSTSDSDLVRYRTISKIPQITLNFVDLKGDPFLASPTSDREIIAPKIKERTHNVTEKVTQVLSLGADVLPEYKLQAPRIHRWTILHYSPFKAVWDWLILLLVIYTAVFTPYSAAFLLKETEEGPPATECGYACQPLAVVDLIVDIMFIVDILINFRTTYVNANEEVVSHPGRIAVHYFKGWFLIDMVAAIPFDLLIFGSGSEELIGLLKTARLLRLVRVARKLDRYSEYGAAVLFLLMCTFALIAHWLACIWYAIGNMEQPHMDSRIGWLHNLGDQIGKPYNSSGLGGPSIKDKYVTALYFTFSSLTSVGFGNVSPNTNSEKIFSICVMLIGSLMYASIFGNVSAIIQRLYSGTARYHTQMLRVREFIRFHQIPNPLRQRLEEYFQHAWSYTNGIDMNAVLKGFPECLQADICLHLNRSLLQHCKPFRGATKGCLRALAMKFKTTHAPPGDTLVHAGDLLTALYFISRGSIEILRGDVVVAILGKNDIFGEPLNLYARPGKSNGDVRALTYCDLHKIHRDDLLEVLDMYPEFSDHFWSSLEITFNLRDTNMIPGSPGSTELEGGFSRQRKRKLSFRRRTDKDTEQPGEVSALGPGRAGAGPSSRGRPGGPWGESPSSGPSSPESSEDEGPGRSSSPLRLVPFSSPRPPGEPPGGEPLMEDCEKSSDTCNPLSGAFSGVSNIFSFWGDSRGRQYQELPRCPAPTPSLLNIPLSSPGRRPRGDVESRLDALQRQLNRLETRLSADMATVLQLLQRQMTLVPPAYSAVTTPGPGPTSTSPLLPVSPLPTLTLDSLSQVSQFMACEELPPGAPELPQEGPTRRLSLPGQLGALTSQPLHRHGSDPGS

This test has as its target human ether-à-go-go-related gene (hERG) potassium channel (human, UniProt Q12809). The experiment in a line: primary screen, population patch clamp on CHO cells stably expressing hERG.
Consider `O=C(CN1CCN(C(=O)c2ccco2)CC1)Nc1cccc([N+](=O)[O-])c1`, for which the “hERG current change (%, negative = inhibition) at 1uM” value is 0.981%.
To `N#Cc1nc(-c2cccc3ccccc23)oc1NCCN1CCCCC1` belongs -3.24%; to `CCOc1ccc(N2C(=O)CC(SCCN)C2=O)cc1.Cl` (stereo not drawn), 7.84%; to `O=C(CSc1nnc(SCc2ccc(Cl)cc2)s1)N/N=C/c1c(Cl)cccc1Cl`, -5.83%.
In the case of `CC(C)C(NC(=O)c1cccs1)c1nnc(SCC(=O)Nc2nccs2)n1C` (stereo not drawn), the “hERG current change (%, negative = inhibition) at 1uM” value was found to be 4.17%.
On to `COc1cccc2cc(C(=O)Nc3ccc(F)cc3)c(=Nc3ccc(C(=O)O)cc3)oc12`, for which the “hERG current change (%, negative = inhibition) at 1uM” value was determined as 9.67%.
To `O=c1nc2n(c3ncccc13)CCC2` belongs 16.1%; to `CN(Cc1ccccc1)c1ccc(C(=O)O)cc1[N+](=O)[O-]`, 13.1%.
Consider `COc1cccc(-c2nc(C=O)cs2)c1`, for which the “hERG current change (%, negative = inhibition) at 1uM” value was determined as 7.54%.
Regarding `Cc1c(NS(=O)(=O)c2cc([N+](=O)[O-])ccc2Cl)c(=O)n(-c2ccccc2)n1C`, the “hERG current change (%, negative = inhibition) at 1uM” value came to 9.07%.
Regarding `O=[N+]([O-])c1ccc(NCCNCCOc2nonc2-c2ccccc2)c([N+](=O)[O-])c1`, the “hERG current change (%, negative = inhibition) at 1uM” value is 3.61%.
Under `CCCCCSc1nnc(-c2ccccc2N)c(=O)[nH]1` stands -4.32%; under `Cc1ccc(C(C)C)c(OCC(=O)Nc2cccc(S(=O)(=O)NC3=NCCCCC3)c2)c1`, 7.13%; under `O=C(CSc1ccc(C(F)(F)F)cc1[N+](=O)[O-])Nc1ccc2ccccc2c1`, 5.53%.
Under `Cc1ccc(NC(=O)c2ccccc2N2C(=O)C3C4C=CC(C5CC45)C3C2=O)cc1C` (stereo not drawn) stands 6.27%; under `CCN(CC(=O)Nc1c(F)cccc1F)C(=O)/C=C/c1ccc2c(c1)OCO2`, 3.1%; under `Cc1c(C(=O)Nc2cccnc2)oc2ccc(Br)cc12`, 6.76%.
Regarding `Cc1nn(-c2ccccc2)c(Cl)c1C1C(C#N)=C(N)Oc2n[nH]c(C)c21` (stereo not drawn), the “hERG current change (%, negative = inhibition) at 1uM” value is given as -0.951%.
For `O=[N+]([O-])c1c(C(Cl)Cl)nn(-c2ccccc2)c1N1CCCC1`, the “hERG current change (%, negative = inhibition) at 1uM” value was found to be 14.6%.
To `CC(C)Oc1ccc(CN2CCC(n3nccc3NC(=O)C3CC3)CC2)cc1` belongs -68.4%.
Turning to `O=[N+]([O-])c1ncccc1OCc1ccc(-c2ccccc2)cc1`, the “hERG current change (%, negative = inhibition) at 1uM” value came to 23.5%.
To `CNCC(O)COc1ccccc1` (stereo not drawn) belongs -2.51%.
For the compound `C=C(C)CNC(=S)N/N=C/c1ccccc1OCC(=O)O`, the “hERG current change (%, negative = inhibition) at 1uM” value stood at 15.1%.
Under `O=C(CCc1ccc(S(=O)(=O)NCCc2ccccc2)cc1)Nc1ccc2c(c1)OCCO2` stands 13.3%; under `CCC1Oc2ccc(C)cc2N(CC(=O)N2CCOCC2)C1=O` (stereo not drawn), 10.7%.
For the compound `O=c1[nH]c(=O)n(-c2ccccc2Cl)c(O)c1C=NCCN1CCCCC1`, the “hERG current change (%, negative = inhibition) at 1uM” value is given as 3.62%.
As to `CC1(C)CC2(CCO1)OC(=O)CC2C(=O)Nc1ccc(Cl)cc1[N+](=O)[O-]` (stereo not drawn), the “hERG current change (%, negative = inhibition) at 1uM” value is given as 3.56%.
For the compound `COc1cc(/C=C2/CCC/C(=C\c3cc(O)c(OC)c(Cl)c3)C2=O)cc(Cl)c1O`, the “hERG current change (%, negative = inhibition) at 1uM” value was determined as 6.07%.
Consider `N#CC(C#N)=c1ccc2c(c1)N1C3=C(CCCC3)CC3CCCCC31N=2` (stereo not drawn), for which the “hERG current change (%, negative = inhibition) at 1uM” value is on record as 11.2%.
Take `Cc1ccc(Cl)cc1N1CCN(C(=O)C(=O)N2CCCCC2)CC1`: the “hERG current change (%, negative = inhibition) at 1uM” value is 12.4%.
As to `O=C(Nc1ccc(F)cc1)c1cccc(N2C(=O)C3C4CCC(C4)C3C2=O)c1` (stereo not drawn), the “hERG current change (%, negative = inhibition) at 1uM” value was determined as 6.35%.
Consider `CCOC(=O)C1=NN(c2ccc(Cl)cc2)C(c2ccccc2)CC1=O` (stereo not drawn), for which the “hERG current change (%, negative = inhibition) at 1uM” value was 8.55%.
Under `CCSCCNC(=O)c1cc(-n2cnnc2)ccc1Cl` stands 3.2%; under `COC(=O)c1ccc(C2=NOC(C)(c3sc(-c4ccc(Cl)cc4)nc3C)C2)cc1` (stereo not drawn), 8.01%; under `Cc1cc(NC(=O)CSCC(=O)Nc2ccc(C)c(C)c2)no1`, -0.301%.
Regarding `CC[N+]1(CC)CC2CCC(C)(C1)C2(C)C.[I-]` (stereo not drawn), the “hERG current change (%, negative = inhibition) at 1uM” value came out at 4.92%.
`CCC(C)NC(=O)CN(c1cc(Cl)ccc1OC)S(C)(=O)=O` (stereo not drawn): the “hERG current change (%, negative = inhibition) at 1uM” value is -1.78%.
Regarding `CN(Cc1ccccc1)C(=O)c1ccccc1C(=O)O`, the “hERG current change (%, negative = inhibition) at 1uM” value stood at 15.8%.
Consider `OC(COCc1ccccc1)Cn1cnc2ccccc21` (stereo not drawn), for which the “hERG current change (%, negative = inhibition) at 1uM” value is recorded as -1.53%.
To `C/C(=N/NC(=O)NC12CC3CC(CC(C3)C1)C2)c1ccccc1` belongs 8.51%; to `O=C(c1ccccc1-c1ccccc1)N1CCCC1`, 10.3%.
Under `CCOC(=O)c1cnc(-n2nc(C)cc2C)nc1NCc1ccccc1` stands 2.73%; under `Cc1nn(-c2ccccc2)c(C)c1NC(=O)COc1ccc(Br)cc1Cl`, 3.62%.
For the compound `O=[N+]([O-])c1ccc(Cl)cc1N1CCCCC1`, the “hERG current change (%, negative = inhibition) at 1uM” value is 17.6%.
For `C=CCOc1ccc2c(CC)cc(=O)oc2c1C`, the “hERG current change (%, negative = inhibition) at 1uM” value worked out at 15%.
As for `O=C(O)CNC(=O)c1ccc(S(=O)(=O)N2CCOCC2)cc1`, the “hERG current change (%, negative = inhibition) at 1uM” value is -3.84%.
For the compound `Nc1nnnn1/N=C/c1cc(Cl)cc(Cl)c1OCc1ccc(Cl)cc1Cl`, the “hERG current change (%, negative = inhibition) at 1uM” value was 0.564%.
Consider `CSc1nc2ccccc2cc1/C=C(\C#N)c1ccccc1`, for which the “hERG current change (%, negative = inhibition) at 1uM” value is on record as 9.25%.
To `COc1cccc(/C=N/NC(=O)c2csc(-n3nc(C)cc3C(F)(F)F)n2)c1` belongs 8.96%; to `Cc1c(Cl)ccc2c1NC(=O)C21NC(CCC(N)=O)[C@H]2C(=O)N(c3ccc(Cl)cc3)C(=O)[C@H]21` (stereo partly drawn), 16%.
`O=C(CCN1C(=O)c2ccccc2C1=O)Nc1cccc(S(=O)(=O)NC2=NCCC2)c1`: the “hERG current change (%, negative = inhibition) at 1uM” value is on record as 17%.
With `CCCn1c(C)c(C(=O)OCC)c(O)c(-c2ccccc2)c1=O`, the “hERG current change (%, negative = inhibition) at 1uM” value is listed as 15.1%.
Take `O=c1cc(CN2CCN(S(=O)(=O)c3ccccc3)CC2)nc2sccn12`: the “hERG current change (%, negative = inhibition) at 1uM” value was 10.2%.
To `CCC(C)n1ncn(-c2ccc(N3CCN(c4ccc(OC)cc4)CC3)cc2)c1=O` (stereo not drawn) belongs 4.4%; to `CN(C)S(=O)(=O)Oc1ccc(Cl)cc1C(=O)Nc1ccc(F)cc1F`, 6.77%; to `COc1cc2c(cc1OC)CN(c1nc(CN3CCOCC3)nc3sc4c(c13)CCC(C)C4)CC2` (stereo not drawn), 5.29%.
Turning to `Nc1ccc2nc(-c3ccccc3)sc2c1`, the “hERG current change (%, negative = inhibition) at 1uM” value was 14.9%.
Consider `O=C(CSc1nc2ccccc2c(=O)n1-c1ccccc1)c1c[nH]c2ccccc12`, for which the “hERG current change (%, negative = inhibition) at 1uM” value is 14.6%.
`COc1ccccc1NC(=O)C1CCCN(c2cc(C)nc3ncnn23)C1` (stereo not drawn): the “hERG current change (%, negative = inhibition) at 1uM” value is -1.59%.
Under `CCN(CC)CCNC(=S)Nc1ccc2nc(N3CCN(CC)CC3)cc(C)c2c1` stands 11.7%; under `CCOc1cccc(C2/C(=C(/O)c3ccc4c(c3)CC(C)O4)C(=O)C(=O)N2Cc2cccnc2)c1` (stereo not drawn), 18.4%; under `O=C(Nc1ccccc1Cl)Nc1cccnc1Cl`, 14.1%.
Take `Cc1ccc(-c2cccc(CN3CCN(C4CCN(C(C)C)CC4)C(CCO)C3)c2)o1` (stereo not drawn): the “hERG current change (%, negative = inhibition) at 1uM” value is given as -2.71%.
Under `Cc1nc2ccc(NC(=O)/C=C/C(=O)O)cc2nc1C` stands 14.3%; under `COc1ccc(N2C(=O)CC(NNC(=O)c3ccc(Br)s3)C2=O)cc1` (stereo not drawn), 8.3%.
With `S=C(Nc1ccc(Oc2ccc(NC(=S)NC3CCCCC3)cc2)cc1)NC1CCCCC1`, the “hERG current change (%, negative = inhibition) at 1uM” value is 6.22%.
To `CN1C(=O)c2ccccc2Sc2ccc(C(=O)O)cc21` belongs 11.7%.
Take `COc1ccccc1/C=C/C(=O)OCC(=O)Nc1ccccc1Sc1ccccc1`: the “hERG current change (%, negative = inhibition) at 1uM” value amounted to 4.88%.
Under `CCOc1cc(CNS(=O)(=O)c2ccc3c(c2)CC(=O)N3C)cc(OCC)c1OCC` stands 2.1%; under `COc1cccc(CNC(=O)CN(C)S(=O)(=O)c2ccc(Br)s2)c1`, 1.55%; under `COCCn1c(=S)[nH]c2cc(C(=O)NC(C)C)ccc2c1=O`, 4.89%.
Under `O=C(NC1CCCCCCC1)c1c(Cl)cccc1Cl` stands 11.2%; under `Cc1ccc(S(=O)(=O)CC(=O)c2ccccc2[N+](=O)[O-])cc1`, 17.5%; under `O=C(C1=NOC(CNc2ncc(C(F)(F)F)cc2Cl)C1)N1CCOCC1` (stereo not drawn), 3.61%.
Turning to `CC(=O)N1c2ccc(S(=O)(=O)N3CCC(C(=O)NCc4ccc(C)cc4)CC3)cc2CC1C` (stereo not drawn), the “hERG current change (%, negative = inhibition) at 1uM” value is recorded as -3.25%.
As for `COc1cc(O)c(C(CC(=O)N2CCCC2)c2ccc3c(c2)OCO3)c(OC)c1` (stereo not drawn), the “hERG current change (%, negative = inhibition) at 1uM” value stood at 9.32%.
As to `COc1cc(NC(=O)CSc2nnnn2-c2ccccc2)cc(OC)c1OC`, the “hERG current change (%, negative = inhibition) at 1uM” value is given as 4.52%.
To `Cn1c(=O)oc2cc(S(=O)(=O)N3CCC(C(=O)NCc4cccs4)CC3)ccc21` belongs 8.76%; to `COCCn1c(SCC(=O)N2CCc3ccccc3C2)nc2cc(Cl)ccc2c1=O`, 5.44%.
With `O=C(CN1C(=O)c2cccc3cccc1c23)N1CCN(Cc2ccc3c(c2)OCO3)CC1`, the “hERG current change (%, negative = inhibition) at 1uM” value was 8%.
Regarding `COc1ccccc1C(=O)Nc1c2c(nn1-c1cccc(C)c1C)CS(=O)(=O)C2`, the “hERG current change (%, negative = inhibition) at 1uM” value was -14%.
Regarding `Cn1c(C=O)c(-c2ccc3cc[nH]c3c2)c2ccccc21`, the “hERG current change (%, negative = inhibition) at 1uM” value is 23.8%.
To `O=C(ONC1=NCCCCC1)c1c(F)cccc1F` belongs 8.71%.
Consider `COc1ccc(NS(=O)(=O)c2cccc(C(=O)NCc3cccnc3)c2)cc1`, for which the “hERG current change (%, negative = inhibition) at 1uM” value is reported as -16.5%.
To `Cc1cc(C(F)F)n2ncc(C(=O)NCCc3ccccc3Cl)c2n1` belongs 7.77%; to `COc1ccccc1C(=O)NC(=O)COC(=O)c1nc(Cl)ccc1Cl`, 4.34%.
Consider `CC1(C)CC(=O)c2sc(NC(=O)CN3CCOCC3)nc2C1`, for which the “hERG current change (%, negative = inhibition) at 1uM” value is 8.74%.
